The values that follow come from paper PMC12820563.

Some of the results follow. The list includes weakly bound sequences.

This assay deals with T1, MBP-FoxP3dN (UniProt Q99JB6).
T1 sequence: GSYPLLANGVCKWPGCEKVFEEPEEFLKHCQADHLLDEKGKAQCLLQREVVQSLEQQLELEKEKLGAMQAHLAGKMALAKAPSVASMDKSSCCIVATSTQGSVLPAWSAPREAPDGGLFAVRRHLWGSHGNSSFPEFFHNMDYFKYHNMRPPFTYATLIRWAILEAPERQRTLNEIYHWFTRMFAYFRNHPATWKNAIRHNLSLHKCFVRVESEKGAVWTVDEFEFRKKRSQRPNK
As to the kind of experiment: PD-seq (MBP pull-down with sequencing). The settings on record: 20 mM Tris-HCl pH 7.5, 100 mM NaCl, 1.5 mM MgCl2, 0.4 uM protein, 0.1 uM dsDNA library, 30 min, room temperature, amylose pull-down; high values mean tight binding; double strand, one strand shown.
As to “GATGATTGTTCTCCCAGCTGATGAATTCTAGCCCTCGAGTAAACAAATTTTCCTAATCTTTCTGTTCAAGCGCCATCTAC”, the binding signal (RPM ratio (pull-down/input)) came out at 0.421.
Under “GATGATTGTTCTCCCAGCTGATGAATTGAGACACTCGAGTAAACAAATTTTCCTAATCTTTCTGTTCAAGCGCCATCTAC” stands 1.41.
The figure for “GATGATTGTTCTCCCAGCTGATGAATTATATGACTCGAGTAAACAAATTTTCCTAATCTTTCTGTTCAAGCGCCATCTAC” is 0.508.
The figure for “GATGATTGTTCTCCCAGCTGATGAATTTACCTCCTCGAGTAAACAAATTTTCCTAATCTTTCTGTTCAAGCGCCATCTAC” is 0.573; for “GATGATTGTTCTCCCAGCTGATGAATTTTTAGTCTCGAGTAAACAAATTTTCCTAATCTTTCTGTTCAAGCGCCATCTAC” it is 0.297; for “GATGATTGTTCTCCCAGCTGATGAATTCTGCTCCTCGAGTAAACAAATTTTCCTAATCTTTCTGTTCAAGCGCCATCTAC” it is 0.734.
“GATGATTGTTCTCCCAGCTGATGAATTAGTTGCCTCGAGTAAACAAATTTTCCTAATCTTTCTGTTCAAGCGCCATCTAC”: the binding signal (RPM ratio (pull-down/input)) came to 3.87.
As for “GATGATTGTTCTCCCAGCTGATGAATTATTTATATCGAGTAAACAAATTTTCCTAATCTTTCTGTTCAAGCGCCATCTAC”, the binding signal (RPM ratio (pull-down/input)) came to 1.82.
Turning to “GATGATTGTTCTCCCAGCTGATGAATTTCTAGTGTCGAGTAAACAAATTTTCCTAATCTTTCTGTTCAAGCGCCATCTAC”, the binding signal (RPM ratio (pull-down/input)) amounted to 0.376.
Regarding “GATGATTGTTCTCCCAGCTGATGAATTCTTTGGGTCGAGTAAACAAATTTTCCTAATCTTTCTGTTCAAGCGCCATCTAC”, the binding signal (RPM ratio (pull-down/input)) turned out to be 0.275.
As for “GATGATTGTTCTCCCAGCTGATGAATTCAAGAGATCGAGTAAACAAATTTTCCTAATCTTTCTGTTCAAGCGCCATCTAC”, the binding signal (RPM ratio (pull-down/input)) amounted to 0.187.
As for “GATGATTGTTCTCCCAGCTGATGAATTACACTACTCGAGTAAACAAATTTTCCTAATCTTTCTGTTCAAGCGCCATCTAC”, the binding signal (RPM ratio (pull-down/input)) was 0.573.
In the case of “GATGATTGTTCTCCCAGCTGATGAATTTAACCAGTCGAGTAAACAAATTTTCCTAATCTTTCTGTTCAAGCGCCATCTAC”, the binding signal (RPM ratio (pull-down/input)) was determined as 0.194.
The figure for “GATGATTGTTCTCCCAGCTGATGAATTCTTCAGTTCGAGTAAACAAATTTTCCTAATCTTTCTGTTCAAGCGCCATCTAC” is 0.238; for “GATGATTGTTCTCCCAGCTGATGAATTTATAGACTCGAGTAAACAAATTTTCCTAATCTTTCTGTTCAAGCGCCATCTAC” it is 0.775; for “GATGATTGTTCTCCCAGCTGATGAATTTTTGCGCTCGAGTAAACAAATTTTCCTAATCTTTCTGTTCAAGCGCCATCTAC” it is 0.598.
The figure for “GATGATTGTTCTCCCAGCTGATGAATTTATGAGATCGAGTAAACAAATTTTCCTAATCTTTCTGTTCAAGCGCCATCTAC” is 0.368.
As to “GATGATTGTTCTCCCAGCTGATGAATTTACGAGTTCGAGTAAACAAATTTTCCTAATCTTTCTGTTCAAGCGCCATCTAC”, the binding signal (RPM ratio (pull-down/input)) is 0.556.
“GATGATTGTTCTCCCAGCTGATGAATTGACTCCCTCGAGTAAACAAATTTTCCTAATCTTTCTGTTCAAGCGCCATCTAC”: the binding signal (RPM ratio (pull-down/input)) came to 0.386.
Under “GATGATTGTTCTCCCAGCTGATGAATTCGCACTCTCGAGTAAACAAATTTTCCTAATCTTTCTGTTCAAGCGCCATCTAC” stands 0.544; under “GATGATTGTTCTCCCAGCTGATGAATTATAGAATTCGAGTAAACAAATTTTCCTAATCTTTCTGTTCAAGCGCCATCTAC”, 0.645.
The figure for “GATGATTGTTCTCCCAGCTGATGAATTTCTGTCCTCGAGTAAACAAATTTTCCTAATCTTTCTGTTCAAGCGCCATCTAC” is 0.313.
Regarding “GATGATTGTTCTCCCAGCTGATGAATTGTAAGGGTCGAGTAAACAAATTTTCCTAATCTTTCTGTTCAAGCGCCATCTAC”, the binding signal (RPM ratio (pull-down/input)) stood at 0.368.
Regarding “GATGATTGTTCTCCCAGCTGATGAATTCATCTTTTCGAGTAAACAAATTTTCCTAATCTTTCTGTTCAAGCGCCATCTAC”, the binding signal (RPM ratio (pull-down/input)) worked out at 0.348.
Under “GATGATTGTTCTCCCAGCTGATGAATTCCGAGAATCGAGTAAACAAATTTTCCTAATCTTTCTGTTCAAGCGCCATCTAC” stands 0.186.
“GATGATTGTTCTCCCAGCTGATGAATTCCCACTATCGAGTAAACAAATTTTCCTAATCTTTCTGTTCAAGCGCCATCTAC”: the binding signal (RPM ratio (pull-down/input)) came out at 0.33.
For the sequence “GATGATTGTTCTCCCAGCTGATGAATTTACCGTATCGAGTAAACAAATTTTCCTAATCTTTCTGTTCAAGCGCCATCTAC”, the binding signal (RPM ratio (pull-down/input)) was 0.733.
The figure for “GATGATTGTTCTCCCAGCTGATGAATTGATACTCTCGAGTAAACAAATTTTCCTAATCTTTCTGTTCAAGCGCCATCTAC” is 0.723; for “GATGATTGTTCTCCCAGCTGATGAATTTGGGGCGTCGAGTAAACAAATTTTCCTAATCTTTCTGTTCAAGCGCCATCTAC” it is 0.667.
As for “GATGATTGTTCTCCCAGCTGATGAATTTCTGAAGTCGAGTAAACAAATTTTCCTAATCTTTCTGTTCAAGCGCCATCTAC”, the binding signal (RPM ratio (pull-down/input)) amounted to 0.186.
Under “GATGATTGTTCTCCCAGCTGATGAATTCTCAAGTTCGAGTAAACAAATTTTCCTAATCTTTCTGTTCAAGCGCCATCTAC” stands 0.226.
As for “GATGATTGTTCTCCCAGCTGATGAATTACCCTACTCGAGTAAACAAATTTTCCTAATCTTTCTGTTCAAGCGCCATCTAC”, the binding signal (RPM ratio (pull-down/input)) came out at 0.313.
